Experimental data taken from the supplement of paper PMC11417369.
The other results are listed elsewhere or left out.

The sequences below were run on PfSIP2 AP2 domain 1 (GST-tagged) (assay: gcPBM binding intensity (ln(normalized median fluorescence intensity)); higher = stronger DNA binding).
How it was run: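 Binding intensity is the highest Masliner-normalised natural-log median intensity over replicate spots in either probe orientation. To obtain it, GST-tagged P. falciparum DNA-binding domains made in E. coli were incubated for 1 h on an Agilent 4 × 180k array of primer-extended double-stranded 36-bp intergenic genomic probes plus negative controls. Detection used Alexa488 anti-GST antibody with scanning at 488 nm.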

Sequence | gcPBM binding intensity (ln)
ATAAATTCTATGTATACACACATATATAATATATAT [CACACA_site2689] | 7.26
TTTTTTTTTTTTGAAGTGCATGTTACGATGAACAAA [GTGCAC_site9451] | 8.41
CTAAAAAGAGAAGTGTGTCCTCAAATTAATATAATT [XGTACX_site1057] | 6.84
TCTTATATAACGAAAGTAAAATAATATGCTAAGCAT [CACACA_negctrl_site668] | 6.72
AATGAATATTAAAGGAGTACACATAATAAGTAAGAA [XGTACX_site7354] | 7.77
TATATAAAAATATACACACACAAATGTATTTATATA [CACACA_site4284] | 6.88
GAAAAAAAAAAAAATACACACAAATTGGTATAGAAT [CACACA_site380] | 6.76
AAAATAGAGTTGAATGCACACATACAAATTTTTAGG [CACACA_site9188] | 7.47
ATAAATAATTTATTCACACATACAAAAGTTTACAAA [CACACA_site5666] | 7.16
TTATTAAATTCTTTATTTAGCATATACAATAAAAGA [CACACA_negctrl_site1420] | 6.8
CGTAAACGATATAAATGTACGAATATCTATATATTA [XGTACX_site8116] | 6.77
TATATATTGCCCTTCACACACACACCGATATATATA [CACACA_site5390] | 7.35
TATTTCATCTTTTAAGAAGGTACCCATATGTCATAT [GTGCAC_negctrl_site403] | 6.98
ATATATATATATATTTGTACTTACATTTTTATTTAT [XGTACX_site4551] | 8.98
AAAAATATAACCGTTACACACAAAATAATATGAGAA [CACACA_site3773] | 6.99
ATAATAAGGTTAAGCACACATATTACATATATAACT [CACACA_site3356] | 6.98
GAACGATATATTATATGTACATATATATATATATAT [XGTACX_site394] | 9.38
TCGTTTCATAATATTGTGCACATATATATTTACAAT | 9.14
ATATTTTATATAATAGTGCAAATAATATTAAATAAT | 8.4
ATTATAATATTTAATTGTACTTGTATTTATTCCAAA [XGTACX_site6417] | 6.89
TAATAAAAAGTTGAGGTGCATATAGAGTTCTTCTTT [GTGCAC_site9508] | 10
TGCCCTTTGGTTATAACACACATGCACCCGTAAATA [CACACA_site3842] | 11.9
CACATAAAATAAGGTGCATGCAAACGAGAAAATAAA [TGCATGCA_site75] | 11

Sequence | gcPBM binding intensity (ln)
AAAAAAAATATATTACAAAACTTAGGATCCTAATAT [CACACA_negctrl_site470] | 6.8
AATAAATATATTAAAAGTACACAAATATTATTTAAT [XGTACX_site2482] | 7.09
AAGATTAAACATTGCACACAAAAACATATTTTCTAT [CACACA_site530] | 7.08
ATATATATATAATAATGTACTTATAATAGATGTGTA [XGTACX_site4677] | 8.55
AATATATAAGCTGTTCTATTCAAGAATTATATCTTA [CACACA_negctrl_site270] | 6.76
CAAAGGAAACCTATCTGTACACATATTGGGGGAAAA [XGTACX_site3502] | 7.3
AGAAGATTAAACATTGCACACAAAAACATATTTTCT [CACACA_site8072] | 6.88
AAAGGGACATATATATCACACACAAAAATTAGTCCC [CACACA_site8897] | 6.9
TAATATCTACATATATGTACATATATATATATATAT [XGTACX_site7979] | 9.31
TTATATATGTATTAATGTACATAGTTGAGAAAGGTA [XGTACX_site1511] | 7.48
GGAAGCTAATTACACACATGCATATTTTTTTTTCAA [TGCATGCA_site548] | 7.04
ATAATATAGAACAATACATGCAAATGGCTTAAATTT [TGCATGCA_site521] | 6.9
ATGGGACAGATATATACACACATATAAATATAAATA [CACACA_site6684] | 6.99
TATGTTAAAAAAAAATGTACATATGTTTTTGTTAAA [XGTACX_site4754] | 6.86
AAATGAATAATGATATACAAACAAATCATGTGTTAA [XGTACX_negctrl_site150] | 6.55
GACCCATTATTTTATTGTACTTTTATTATAACGTGA [XGTACX_site156] | 7.33
ATACATTCAAAATATACACACATATATATATAATAT [CACACA_site950] | 7.13
TTTCCCCCATATAATGAACACACACCCTCCTCATAA [CACACA_site8110] | 7.83
ATGTGTGTATACATCAATTATATATATATTATGTAT [GTGCAC_negctrl_site720] | 7.08
AAAATAAAAATAACAACACACATATACTATAATATT [CACACA_site2769] | 6.98
CATTTCATTTCTTAATGTACTTTATTCCACCACATA [XGTACX_site5943] | 7.07
ATAAATATATGAAGTTGTACAAATAATTAACATTAT [XGTACX_site5740] | 6.97
AAATTAAATAAATTTACACACTAAAAATTACATATA [CACACA_site1054] | 6.88

Sequence | gcPBM binding intensity (ln)
ATTTTTTTTAATTTGTACAAATTTTGTTCACAATTT [CACACA_negctrl_site1301] | 6.99
TACCATGTTCAAATTACACACATATAATCTAATATA [CACACA_site2008] | 6.78
TCATATAATCAAATATGTACATATTTTCAATTGAAT [XGTACX_site6831] | 6.97
ATATAATTTGATGGTTAACACACATATATATTATAT [CACACA_site8775] | 7.04
TTATTTATTTTTTATACACACAATTATCTTTTTAAG [CACACA_site6162] | 6.93
ATATTTATTTAATGAACACACGATATATTATTTTAT [CACACA_site1602] | 6.86
ATATAGAATATATTAACATGCAATAAGTAAAGGGGG [TGCATGCA_site1022] | 7.91
CACTTCATAAAAATTGCACACATATAATAATGTACA [CACACA_site8692] | 7.43
ACAATGAAATATTCATGTACATATAAATAATAGTGT [XGTACX_site3762] | 7.21
AAAATGATAATACCAAGTACACATATGAAAAATACA [XGTACX_site6763] | 7.18
TGTTTTCCCTTTAGTGTGCACGTATTTCTATTAACA [GTGCAC_site9847] | 10
TAAATCATTTATTAAGTGCAATATTCTTTTTGAGAT | 7.44
TAAAAACATTTAAATTGTACGGAAATAAAAATTTTT [XGTACX_site8225] | 6.94
ATATAAATATTAAATACACACATTTTTGATTAGGTT [CACACA_site7461] | 6.82
TATTTCGTAATTTAATAATATACAAGAAATATATAT [XGTACX_negctrl_site143] | 6.98
TATGTGTATAATAAAAGTACATATATTATTATATAA [XGTACX_site8556] | 7.14
TAAAATAATAAAACAACACACAAATAGTTAAAATAG [CACACA_site1680] | 7.1
ATTGACGTCATATAAACATGCACATTTTGGATGTTT [TGCATGCA_site985] | 7.06
CATATAATAAAAAATGTACACACATAAGAAAATTTA [CACACA_site8943] | 7.08
TAAATATAATAAGAACAAACAAAATAGTACAATATA [TGCATGCA_negctrl_site364] | 7.29
TTTTTTTTAAATTGTGGTACACAAATTCATATATAT [XGTACX_site8944] | 7.21
AAAAGAAAAAAAAGTACACACATGTATATTAATCGT [CACACA_site2528] | 7.11
GTCATATTATTATTACGTACTTAAATATATAATATA [XGTACX_site3405] | 7.23

Sequence | gcPBM binding intensity (ln)
TGTTAACTTAAAAAAATACCTACGGAAAAATCACAA [TGCATGCA_negctrl_site433] | 6.93
TACAAAATACAAAAATGTACATAAAAATTTATAAAA [XGTACX_site6861] | 6.99
ATATTAAAATATAATCGTACAATTAAATTTTTTTTT [XGTACX_site2739] | 6.99
TACAGATACGGACACACACACACACCCAGACAAAAA [CACACA_site4432] | 7.54
AATAAATAAAAAATTACACACATATTTATAAATATA [CACACA_site7584] | 6.86
TTTGTTTTTATTTACACATGCAAAAAAAAAAAAAAA [TGCATGCA_site655] | 7.16
CACAAAAATAAATATAAACACACAATAAATAAATAA [CACACA_site8197] | 6.79
TAAAATAAGTTAAAAAGTACATAATTATAATAAATA [XGTACX_site8108] | 6.89
ATATATATATATATTCCACACACACCCAAAAAAAAA [CACACA_site9215] | 9.32
CCCCCCCACGAACACACACACATACATACCACATAT [CACACA_site7149] | 9.05
TTATAATAGTTAATATGTACATATTTAATAAATAAT [XGTACX_site3183] | 7.05
TACTATTTAAAATATGAACACACATTATTTGTTTTA [CACACA_site8870] | 6.85
CACAAAAATAAACACACACACATATATATTTATTAT [CACACA_site5923] | 7.03
TAAATTAAAAGACACACACACAAAAAAAAAAAAAAA [CACACA_site7131] | 6.91
GGAAACTAAAGGAATAAAACTATGGAAATTAATTAA [CACACA_negctrl_site1647] | 6.64
ATTCAAAATTATAGGTGTACGTATTTTTTTTTTTTT [XGTACX_site7177] | 8.4
AGATGATATAATGGCACACAAATATTTTATTATAAA [CACACA_site3553] | 6.95
TAAATTTATAAATCACGTACATATTTATTTATATTT [XGTACX_site4532] | 6.87
ATAATTTCATAATACGTGCACATAATATATAAAAAA | 10.5
AATAAAAATATATCCACACACATATATATATATGTA [CACACA_site576] | 7.13
